Test results taken from publication PMC5836133.
Some of the results follow. At the low end of the ranking the order means little.
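Further: rank-based score ranging −0.5 to +0.5 with E above 0.45 taken as significant binding.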

The sequences below were run on T1, GST-NbGlk1(82-244) (assay: protein-binding microarray). Conditions: NbGlk1 is a Golden2-like transcription factor of Nicotiana benthamiana; high values mean tight binding; most listed sequences are background and not binding sites; double strand, one strand shown.
T1 sequence: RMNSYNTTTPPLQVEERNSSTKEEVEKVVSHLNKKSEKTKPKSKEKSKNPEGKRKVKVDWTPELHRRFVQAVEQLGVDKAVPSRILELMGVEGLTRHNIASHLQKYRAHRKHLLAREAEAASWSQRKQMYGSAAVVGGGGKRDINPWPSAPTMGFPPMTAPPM
With ATCTCACG the binding signal was 0.2 E-score. For ACACGCGT, the binding signal was -0.0669 E-score. Sequence ACTTTACT has a binding signal of 0.0151 E-score. Work on AGCGTGCG yielded a binding signal of -0.132 E-score. AAAGCTCC showed a binding signal of -0.263 E-score. AGTTATTG gave a binding signal of -0.0139 E-score. Sequence ATAACAGC has a binding signal of -0.0595 E-score. With AACCCTGA the binding signal was -0.000472 E-score. In the case of CACAACTC, the binding signal is reported as -0.0401 E-score. For ATGTAGGC, the binding signal was -0.121 E-score. ACATTCCG was tested, and the binding signal was 0.0221 E-score. In the case of ATAACCCA, the binding signal is reported as -0.0342 E-score. With AATACGCG the binding signal was 0.149 E-score. In the case of AGTATTAT, the binding signal is reported as 0.133 E-score. ACCGTCCT was tested, and the binding signal was -0.161 E-score. With AAAAGTAC the binding signal was -0.13 E-score. ACACGAAC gave a binding signal of -0.187 E-score. AAAGAGTG gave a binding signal of -0.11 E-score. Work on AGCACACT yielded a binding signal of -0.199 E-score. In the case of ACCTTTAA, the binding signal is reported as 0.176 E-score. In the case of ATGTACGC, the binding signal is reported as -0.0632 E-score. ATCGTTAA was tested, and the binding signal was 0.178 E-score. With AGCCGGTG the binding signal was -0.245 E-score. ATCTCTCC was tested, and the binding signal was 0.197 E-score. Sequence ACGGGGAT has a binding signal of 0.214 E-score. Work on ATCCACCG yielded a binding signal of 0.125 E-score. Work on AGCCCAGC yielded a binding signal of -0.379 E-score. CAAGGTTA gave a binding signal of -0.12 E-score. Sequence AGGTTTCC has a binding signal of -0.207 E-score. Sequence ACTCCGCT has a binding signal of -0.229 E-score. ACAGAGTA gave a binding signal of 0.1 E-score. CAACTGAA showed a binding signal of -0.0297 E-score. For ATGACCCC, the binding signal was -0.268 E-score. AACTATTG gave a binding signal of 0.13 E-score. ACCGCAGG gave a binding signal of -0.193 E-score. With CAAATGCC the binding signal was -0.0934 E-score. With AATCGTAC the binding signal was 0.257 E-score. With AGACTGAG the binding signal was -0.082 E-score. ATCGGCCC showed a binding signal of 0.0915 E-score. Work on AAACCTGG yielded a binding signal of -0.206 E-score. With ATCTAACC the binding signal was 0.266 E-score. ACCAGGGT was tested, and the binding signal was -0.322 E-score. Sequence AGCAGTAA has a binding signal of -0.049 E-score. With CAATCCTG the binding signal was 0.328 E-score. AAGGTTCT was tested, and the binding signal was -0.176 E-score. In the case of CAACATCG, the binding signal is reported as 0.0129 E-score. Sequence CACCAAAC has a binding signal of -0.0638 E-score. Work on CACACTCC yielded a binding signal of -0.0563 E-score. ACACTACT gave a binding signal of -0.062 E-score. Work on AATATCAG yielded a binding signal of 0.332 E-score. ACGATCTC showed a binding signal of 0.295 E-score. In the case of ACACACTC, the binding signal is reported as -0.063 E-score. In the case of AGGATTAA, the binding signal is reported as -0.117 E-score. ATGTGGTC was tested, and the binding signal was -0.0694 E-score. For CACATCGG, the binding signal was -0.137 E-score. With ATGGATCG the binding signal was 0.0554 E-score. Sequence CACGATGC has a binding signal of -0.0964 E-score. For AGCCTCAG, the binding signal was -0.199 E-score. In the case of ACTCAGTC, the binding signal is reported as -0.137 E-score. AAATGTAC showed a binding signal of -0.164 E-score. In the case of ACTAGCGG, the binding signal is reported as -0.0505 E-score. CACACGAC gave a binding signal of -0.201 E-score. In the case of ACACTTAG, the binding signal is reported as -0.0695 E-score. ACTTAGAA showed a binding signal of 0.0395 E-score. Sequence AGTACGCA has a binding signal of -0.0533 E-score. CACCTATC was tested, and the binding signal was -0.0782 E-score. AGGACATG gave a binding signal of -0.244 E-score. Sequence AATTCGTA has a binding signal of 0.223 E-score. AGATTGTC showed a binding signal of 0.394 E-score. For AAATTCGC, the binding signal was 0.284 E-score. Work on AGGAGCCC yielded a binding signal of -0.373 E-score. For ACAGCCAC, the binding signal was -0.228 E-score. AAGTAGGC was tested, and the binding signal was -0.0687 E-score. Work on ACATTCGT yielded a binding signal of -0.16 E-score. In the case of ACGGTACA, the binding signal is reported as -0.044 E-score. In the case of AGACTGTG, the binding signal is reported as -0.0371 E-score. In the case of AGGGACGC, the binding signal is reported as -0.271 E-score. Sequence ACGTGGTA has a binding signal of 0.00208 E-score. Work on AAAACGCG yielded a binding signal of 0.129 E-score. With ACGTGTAA the binding signal was 0.0997 E-score. For AACGTGAG, the binding signal was 0.029 E-score. Work on ACAGAACA yielded a binding signal of -0.0977 E-score. With ACTTCGCC the binding signal was -0.148 E-score. AGCGGGCG showed a binding signal of -0.202 E-score. For AGGCTAAG, the binding signal was -0.0896 E-score. ATTCCTAA showed a binding signal of 0.236 E-score. For AAACGTCG, the binding signal was 0.0499 E-score. With CAAGTCTC the binding signal was -0.194 E-score. ATGGCTCG showed a binding signal of -0.104 E-score. In the case of ATAATTAG, the binding signal is reported as 0.0782 E-score. In the case of ACGGTTCG, the binding signal is reported as -0.0875 E-score. Work on CAACAAAG yielded a binding signal of 0.0518 E-score. ATTCCTTC gave a binding signal of 0.136 E-score. ATCATACG was tested, and the binding signal was 0.138 E-score. Sequence ATAGGGAC has a binding signal of -0.127 E-score. For AGCGGCGA, the binding signal was -0.0164 E-score. Sequence AATCGCCA has a binding signal of 0.259 E-score. CAAGTGCC gave a binding signal of -0.119 E-score. With ACCACGCT the binding signal was -0.125 E-score. For ATCACATG, the binding signal was 0.196 E-score. Work on ATATTCAG yielded a binding signal of 0.277 E-score. With AATCAGAT the binding signal was 0.341 E-score. CAATCAAG was tested, and the binding signal was 0.207 E-score. With ACACCTAA the binding signal was -0.0253 E-score. With ATGCACAA the binding signal was -0.0196 E-score. For ACCGCTTA, the binding signal was -0.172 E-score. Work on AAGAGGGT yielded a binding signal of -0.235 E-score. Sequence ACACGTCC has a binding signal of -0.211 E-score. For ATTACCTG, the binding signal was 0.213 E-score. AACCCATT showed a binding signal of -0.0799 E-score. ACGTACGT showed a binding signal of -0.0451 E-score. With ATTTCCGC the binding signal was 0.333 E-score. ATATACAA gave a binding signal of 0.212 E-score. AGATTAAA showed a binding signal of 0.0248 E-score. ATGAAGTG showed a binding signal of 0.00397 E-score. Sequence ATGCGTGA has a binding signal of -0.0807 E-score. Sequence ACCCCGCT has a binding signal of -0.0466 E-score. AAACACAA was tested, and the binding signal was 0.0249 E-score. ATCCGGTC gave a binding signal of 0.14 E-score. In the case of ATAAGGAC, the binding signal is reported as -0.124 E-score. With AAGTTTTC the binding signal was -0.021 E-score. AGCTGAAA gave a binding signal of -0.00169 E-score. ACTTAAAA showed a binding signal of 0.14 E-score. In the case of ATCTATTG, the binding signal is reported as 0.223 E-score. AACCTCTG was tested, and the binding signal was -0.185 E-score. For AATACAAA, the binding signal was 0.195 E-score. For AGTGGATG, the binding signal was -0.00283 E-score. Work on AGGGCATC yielded a binding signal of -0.221 E-score. Sequence AGTGGACA has a binding signal of 0.0475 E-score. AGACCTTG gave a binding signal of -0.15 E-score. Sequence ATGATGAC has a binding signal of -0.0779 E-score. Work on ACCCCATA yielded a binding signal of -0.0521 E-score. AGCCCTGA showed a binding signal of -0.185 E-score. Work on ACTAACGG yielded a binding signal of 0.131 E-score. CAGCGCCA gave a binding signal of -0.211 E-score. For ACCTGAGG, the binding signal was -0.0697 E-score. AAGGCAGA was tested, and the binding signal was 0.0199 E-score. Work on AAACGCGT yielded a binding signal of 0.0933 E-score. Work on CAATAACA yielded a binding signal of -0.106 E-score. Sequence AGTAGTGA has a binding signal of 0.0266 E-score. In the case of ATCGTGAA, the binding signal is reported as 0.166 E-score. ATCATAAC was tested, and the binding signal was 0.153 E-score. For CACGGAGG, the binding signal was -0.212 E-score. For AATGTAAG, the binding signal was 0.0454 E-score. AGTCAACA gave a binding signal of -0.113 E-score. For AATTGGTG, the binding signal was -0.00175 E-score. ACTCTGGA showed a binding signal of -0.104 E-score. Sequence ACGGGTCA has a binding signal of -0.24 E-score. Work on AAATAAAT yielded a binding signal of 0.24 E-score. Work on AACGAATA yielded a binding signal of -0.0108 E-score. For CACGGACC, the binding signal was -0.234 E-score. In the case of ACATGGAG, the binding signal is reported as -0.0733 E-score. In the case of AGGTGAGG, the binding signal is reported as -0.217 E-score. Sequence ATCCTGGC has a binding signal of 0.244 E-score. AAGGTGGC showed a binding signal of -0.282 E-score. In the case of ACTATTAA, the binding signal is reported as -0.0379 E-score. With AGCCACTG the binding signal was -0.154 E-score. Sequence CACTCGAA has a binding signal of -0.0802 E-score. ACACGGCG was tested, and the binding signal was -0.139 E-score. With CACTACAA the binding signal was 0.0571 E-score. ACGTTTAC was tested, and the binding signal was 0.057 E-score. Sequence AAATGCGT has a binding signal of 0.0868 E-score. Sequence ACTTGACT has a binding signal of -0.117 E-score. In the case of ATAGTCGA, the binding signal is reported as -0.021 E-score. With CAACCCAC the binding signal was -0.0345 E-score. In the case of AAGAATGC, the binding signal is reported as -0.118 E-score. For ATCGAGTA, the binding signal was 0.117 E-score. CACCGGAC was tested, and the binding signal was -0.206 E-score. AAAAGGGG showed a binding signal of -0.0668 E-score. ACCCAGGA showed a binding signal of -0.0808 E-score. With ACGTCCAG the binding signal was -0.1 E-score. AACGGGTA showed a binding signal of -0.101 E-score.
